Laboratory results from PMC4336329 (PLoS ONE, 2015).
About 2,200 (0.71%) of roughly 310,000 compounds showed an effect of 50% or more. The effect is printed as a negative number. The list shows a part of the results.

Target: human ether-à-go-go-related gene (hERG) potassium channel (human, UniProt Q12809)
Assay: primary screen, population patch clamp on CHO cells stably expressing hERG

Chain of human ether-à-go-go-related gene (hERG) potassium channel (Q12809 whole entry, looked up): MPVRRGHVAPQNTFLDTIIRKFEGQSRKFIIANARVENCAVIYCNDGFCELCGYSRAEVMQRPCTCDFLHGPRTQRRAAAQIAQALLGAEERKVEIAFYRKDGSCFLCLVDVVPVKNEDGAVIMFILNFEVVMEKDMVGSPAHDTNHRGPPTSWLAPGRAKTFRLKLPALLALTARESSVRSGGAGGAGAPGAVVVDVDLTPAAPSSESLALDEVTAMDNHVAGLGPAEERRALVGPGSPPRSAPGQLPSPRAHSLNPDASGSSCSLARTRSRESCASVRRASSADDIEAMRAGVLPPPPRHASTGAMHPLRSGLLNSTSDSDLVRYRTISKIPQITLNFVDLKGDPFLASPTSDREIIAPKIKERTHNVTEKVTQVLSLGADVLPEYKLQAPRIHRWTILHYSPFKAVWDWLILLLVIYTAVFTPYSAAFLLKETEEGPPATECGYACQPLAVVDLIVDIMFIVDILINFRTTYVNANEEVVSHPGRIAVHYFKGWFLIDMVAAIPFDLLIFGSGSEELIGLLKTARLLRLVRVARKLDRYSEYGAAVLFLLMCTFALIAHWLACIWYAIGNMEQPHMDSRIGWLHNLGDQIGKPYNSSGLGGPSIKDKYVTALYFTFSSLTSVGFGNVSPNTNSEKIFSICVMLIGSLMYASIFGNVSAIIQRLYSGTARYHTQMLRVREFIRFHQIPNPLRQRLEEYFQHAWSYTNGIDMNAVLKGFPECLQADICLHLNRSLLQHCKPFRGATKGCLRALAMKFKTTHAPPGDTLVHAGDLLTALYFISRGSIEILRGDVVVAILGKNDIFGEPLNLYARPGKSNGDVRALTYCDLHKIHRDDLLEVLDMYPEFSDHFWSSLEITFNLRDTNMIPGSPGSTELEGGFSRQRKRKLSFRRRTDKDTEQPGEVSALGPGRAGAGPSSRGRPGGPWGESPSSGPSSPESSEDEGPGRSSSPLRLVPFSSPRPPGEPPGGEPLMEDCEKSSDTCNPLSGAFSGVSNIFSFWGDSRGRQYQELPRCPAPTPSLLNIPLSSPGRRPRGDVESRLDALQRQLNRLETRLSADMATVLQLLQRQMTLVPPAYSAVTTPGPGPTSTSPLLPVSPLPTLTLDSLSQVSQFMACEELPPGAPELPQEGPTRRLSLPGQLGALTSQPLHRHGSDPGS

First: O=C(NCc1ccccc1)C(c1ccccc1)N(Cc1ccc2c(c1)OCO2)C(=O)Cc1cccs1 (stereo not drawn)
Second: COc1ccccc1NC(=O)CNC(c1ccccc1)c1ccccc1
The “hERG current change (%, negative = inhibition) at 1uM” value of the first is higher: 13.9% for the first, 9.55% for the second.

Going from `Cc1cc(C)n2nc(SCC(N)=O)nc2n1` to `Cc1ccc2nc(SCC(=O)NCc3ccco3)[nH]c2c1`, the “hERG current change (%, negative = inhibition) at 1uM” value falls from 13.1% to -4.79%.

Going from `CNC(=O)[C@@]1(Cc2ccccc2)C=C[C@@H](C)N1C(=O)OC` to `COC(=O)C(O)(c1c(C)[nH]n(-c2ccccc2)c1=O)C(F)(F)F` (stereo not drawn), the “hERG current change (%, negative = inhibition) at 1uM” value rises from 11.7% to 14.2%.

Going from `COc1ccc(CN2C(=O)c3ccc(C(=O)O)cc3C2=O)cc1` to `COc1ccc(CNC(=O)C2COc3ccccc3O2)cc1` (stereo not drawn), the “hERG current change (%, negative = inhibition) at 1uM” value falls from 12.3% to 7.77%.

Going from `CN1CCN(C(=O)CCN2C(=O)/C(=C/c3cccc(Br)c3)SC2=S)CC1` to `O=C(CCCN1C(=O)/C(=C\c2cccs2)SC1=S)Nc1cc([N+](=O)[O-])ccc1O`, the “hERG current change (%, negative = inhibition) at 1uM” value falls from 16.7% to 15.1%.

First: Cc1cc[n+](CC(=O)Nc2cccc(C)c2)cc1.[Cl-]
Second: CCOC(=O)c1cccc(NC(=O)c2ccc(N(C)C)cc2)c1
The “hERG current change (%, negative = inhibition) at 1uM” value of the first is higher: 12.1% for the first, 2.71% for the second.

Compared with `CCOc1ccc(CCNC(=O)c2ccc(N3CCCC3=O)cc2)cc1OCC`, `COc1cc(C(=O)NCCOc2ccccc2)cc(OC)c1OC` is higher in “hERG current change (%, negative = inhibition) at 1uM” value: 13.2% for the first, 16.3% for the second.

Going from `CCCCC1C2=C(CC(C)(C)CC2=O)OC2=C1C(=O)CC(C)(C)C2` to `CCOC(=O)CC1=C(C(=O)OCC)C2(C(=O)N1)C(C(=O)OC)=C(N)Oc1ccccc12` (stereo not drawn), the “hERG current change (%, negative = inhibition) at 1uM” value falls from 7.94% to -4.49%.

Going from `COc1ccc(N2CCN(C(=O)c3ccc(Oc4ccc(C(F)(F)F)cn4)cc3)CC2)cc1` to `CN1CCN(C(=O)c2ccc(C(F)(F)F)cc2)CC1.Cl`, the “hERG current change (%, negative = inhibition) at 1uM” value rises from -7.25% to 16.8%.

Going from `CCCCCCC(=O)N(O)C1CC(=O)N(c2ccc(Br)cc2)C1=O` (stereo not drawn) to `CCCCCCc1cc2cc(S(=O)(=O)c3ccc(Cl)cc3)c(=O)oc2cc1O`, the “hERG current change (%, negative = inhibition) at 1uM” value falls from 14% to 9.31%.

First: O=C(NNC(=O)c1c(O)c2ccccc2[nH]c1=O)c1ccccc1Br
Second: O=C(Nc1ccc(C(=O)O)cc1)/C(=C\C=C\c1ccccc1)NC(=O)c1ccccc1Br
The “hERG current change (%, negative = inhibition) at 1uM” value of the first is higher: 7.81% for the first, -2.17% for the second.

First: COCCCN(C(=O)CSCc1c(C)noc1C)c1c(N)n(Cc2ccccc2)c(=O)[nH]c1=O
Second: COc1cc(CC2C(=O)N(C)C(=O)N(C)C2=O)ccc1OCc1ccccc1
The “hERG current change (%, negative = inhibition) at 1uM” value of the first is higher: 15.6% for the first, 10.2% for the second.

Compared with `Cc1ccc(OCC(O)CNCc2ccc(F)cc2)cc1` (stereo not drawn), `Nc1ccccc1C(=O)NCc1ccc(Cl)cc1` is higher in “hERG current change (%, negative = inhibition) at 1uM” value: -14.2% for the first, 2.77% for the second.

First: COc1ccc(Cl)cc1NC(=O)c1cccnc1
Second: COc1cc2ccccc2cc1C(=O)Nc1nccs1
The “hERG current change (%, negative = inhibition) at 1uM” value of the first is lower: 9.45% for the first, 11.8% for the second.

First: O=C(Nc1ccc2c(c1)OCO2)c1ccc(Br)c(S(=O)(=O)N2CCCC2)c1
Second: Cn1c(=O)oc2cc(S(=O)(=O)N3CCN(Cc4ccc5c(c4)OCO5)CC3)ccc21
The “hERG current change (%, negative = inhibition) at 1uM” value of the first is higher: 17.7% for the first, -17.1% for the second.

Compared with `COc1ccc(CN(C)Cc2ccccc2)c(OC)c1OC`, `COc1ccc(OC)c(NC(=O)C2CC(/C=C/c3ccccc3)=NO2)c1` (stereo not drawn) is higher in “hERG current change (%, negative = inhibition) at 1uM” value: 6.54% for the first, 13.5% for the second.

Going from `Cn1c(=O)cc(SCC(=O)N2CCN(c3ccccn3)CC2)c2ccccc21` to `Cn1nc(-c2ccc(Cl)cc2)c2cc(C(=O)N3CCN(c4ccccc4)CC3)sc21`, the “hERG current change (%, negative = inhibition) at 1uM” value falls from 5.44% to 4.85%.

First: CC(=O)N1CCN(C(=O)c2cc(-c3cccc4ccccc34)nc3ccccc23)CC1
Second: COc1ccccc1OCc1ccc(C(=O)N2CCN(C(=O)c3ccco3)CC2)cc1
The “hERG current change (%, negative = inhibition) at 1uM” value of the first is lower: -2.95% for the first, 0.783% for the second.

Going from `Cn1c(=O)c2c(nc(CN3CCN(C(=O)c4ccco4)CC3)n2Cc2cccc(Cl)c2)n(C)c1=O` to `Cc1cccc(N2CCN(C(=O)c3ccc4c(c3)NC(=O)C(CSCc3cccc(F)c3)N4)CC2)c1C` (stereo not drawn), the “hERG current change (%, negative = inhibition) at 1uM” value rises from -18.5% to 12.8%.

Going from `Cc1cc(NC(=O)CCNS(=O)(=O)c2ccc3[nH]c(=O)oc3c2)ccc1Br` to `Cc1nc(-c2ccc(NC(=O)c3ccc(Br)o3)cc2)cs1`, the “hERG current change (%, negative = inhibition) at 1uM” value falls from 13% to 9.7%.

Compared with `O=C(CNS(=O)(=O)c1ccccc1)N/N=C\c1ccc(Cl)cc1`, `NC(N)=NS(=O)(=O)c1ccc(NC(=S)NC(=O)Cc2ccc(Cl)cc2)cc1` is higher in “hERG current change (%, negative = inhibition) at 1uM” value: 7.62% for the first, 14.1% for the second.

Going from `CCNC(=S)N/N=C/c1ccc(-c2ccccc2)o1` to `NC(=S)N/N=C/c1ccc2ccccc2c1`, the “hERG current change (%, negative = inhibition) at 1uM” value falls from 8.02% to 2.29%.

Compared with `Cc1ccccc1C(=O)NNC(=S)NC(=O)c1cccs1`, `O=C(O)c1cc2ccccc2c(=O)s1` is lower in “hERG current change (%, negative = inhibition) at 1uM” value: 23.1% for the first, 14% for the second.

Compared with `O=C1CCCN1CC(CN1CCOCC1)Sc1nnnn1-c1ccccc1` (stereo not drawn), `O=C(c1ccccc1F)N1CCN(c2ccc([N+](=O)[O-])c(N3CCOCC3)c2)CC1` is higher in “hERG current change (%, negative = inhibition) at 1uM” value: 8.06% for the first, 25.4% for the second.

Compared with `CCOC(=O)c1c(C)[nH]c(C)c1C(=O)COC(=O)c1cc2ccccc2cc1OC`, `CCOC(=O)C1=C(c2ccccc2)N=C2SCC(=O)N2C1c1ccc(OC)c(OC)c1` (stereo not drawn) is lower in “hERG current change (%, negative = inhibition) at 1uM” value: 10.8% for the first, 6.2% for the second.

First: COCCN1Cc2cc3cc(C)ccc3nc2SC1=Nc1ccc(OC)cc1
Second: CO.COc1ccc(Nc2nc(Nc3ccc(OC)cc3)nc(SC3=NCCS3)n2)cc1
The “hERG current change (%, negative = inhibition) at 1uM” value of the first is lower: 9.8% for the first, 16.7% for the second.

First: CC(C)Cc1nc2oc3c(=O)[nH]cnc3c2c2c1CCCC2
Second: CC(C)OC(=O)CN1C(=O)S/C(=C/c2ccc(N3CCCCC3)o2)C1=O
The “hERG current change (%, negative = inhibition) at 1uM” value of the first is higher: 2.36% for the first, 0.015% for the second.

Compared with `Cc1ccc(/C=C2\SC(=S)N(CC3CCCO3)C2=O)o1` (stereo not drawn), `O=C(CSc1nc2ccccc2o1)NCC1CCCO1` (stereo not drawn) is higher in “hERG current change (%, negative = inhibition) at 1uM” value: -2.26% for the first, -1.64% for the second.

Compared with `COc1cccc(CNC(=O)c2cc(C)nc3ccccc23)c1`, `COc1cccc(-c2cc(C(=O)N3CCc4ccccc4C3)[nH]n2)c1` is higher in “hERG current change (%, negative = inhibition) at 1uM” value: 11% for the first, 17.1% for the second.

Compared with `CCC1CCCCN1C/C=C/c1ccccc1[N+](=O)[O-]` (stereo not drawn), `O=C(COc1ccccc1[N+](=O)[O-])N(Cc1cccc(Br)c1)C1CCS(=O)(=O)C1` (stereo not drawn) is higher in “hERG current change (%, negative = inhibition) at 1uM” value: -35% for the first, -9.07% for the second.

Compared with `O=C(Nc1cc(S(=O)(=O)N2CCOCC2)ccc1N1CCOCC1)c1cc(=O)[nH]c2ccccc12`, `O=C(OCC(=O)N1CCCC1)c1ccc(S(=O)(=O)N2CCOCC2)cc1` is higher in “hERG current change (%, negative = inhibition) at 1uM” value: 1.79% for the first, 12.6% for the second.

Compared with `Cc1c(Cc2ccccc2)c(=O)oc2cc(OCC(=O)N3CCC(C(=O)O)CC3)ccc12`, `CC(=O)OCC1=C(C(=O)O)N2C(=O)C(NC(=O)c3ccc(COc4ccc(Cl)cc4)o3)C2SC1` (stereo not drawn) is lower in “hERG current change (%, negative = inhibition) at 1uM” value: 6.71% for the first, 3.91% for the second.

First: COc1ccccc1N1CCN(C(=O)Nc2ccc([N+](=O)[O-])cc2)CC1
Second: CC1CCN(S(=O)(=O)c2ccc(NC(=O)Cn3nnc(-c4ccccc4F)n3)cc2)CC1
The “hERG current change (%, negative = inhibition) at 1uM” value of the first is lower: -10.6% for the first, 2.24% for the second.

First: CC1(c2nnc(-c3ccc(Cl)cc3)o2)CC(c2ccc([N+](=O)[O-])cc2)=NO1 (stereo not drawn)
Second: C/C(=N\OCc1ccc(C#N)cc1)c1ccc(S(=O)(=O)N(C)C)cc1
The “hERG current change (%, negative = inhibition) at 1uM” value of the first is higher: 1.73% for the first, -5.37% for the second.

Compared with `CCOCCOC(=O)c1[nH]c2c(c1C)C(=O)CC(c1ccccc1)C2` (stereo not drawn), `COC(=O)C1=C(N)Oc2cc(C)[nH]c(=O)c2C1c1ccncc1` (stereo not drawn) is higher in “hERG current change (%, negative = inhibition) at 1uM” value: 4.31% for the first, 12.7% for the second.

First: Nc1ncnc(Nc2cccc(C(F)(F)F)c2)n1
Second: Cc1cc(C(F)(F)F)nc(-n2cc(-c3cccc(N)c3)nn2)n1
The “hERG current change (%, negative = inhibition) at 1uM” value of the first is lower: 3.31% for the first, 4.58% for the second.

Compared with `CCCC(=O)Nc1nn(CC)c2nc3ccc(C)cc3cc12`, `Cc1c([N+](=O)[O-])c([N+](=O)[O-])nn1CC(=O)NCc1cccnc1` is lower in “hERG current change (%, negative = inhibition) at 1uM” value: 11.2% for the first, 8.28% for the second.

First: COc1ccc(S(=O)(=O)N(C)CC(=O)N2CCCC2)cc1OC
Second: COc1cc(C(=O)Nc2c(C(=O)N3CCOCC3)oc3ccccc23)cc(OC)c1OC
The “hERG current change (%, negative = inhibition) at 1uM” value of the first is higher: 17.6% for the first, -0.979% for the second.

Compared with `CCN(c1ccccc1)S(=O)(=O)c1nnc(NC(=O)C(C)(C)C)s1`, `CN(C)S(=O)(=O)c1cccc(N=C2SCCN2Cc2ccccc2)c1` is lower in “hERG current change (%, negative = inhibition) at 1uM” value: 14.3% for the first, 0.812% for the second.

First: O=C(CN1C(=O)c2cccnc2Oc2ccc(Cl)cc21)N1CCOCC1
Second: O=c1cc(N2CCOCC2)[nH]c(=O)n1-c1ccc(Br)cc1
The “hERG current change (%, negative = inhibition) at 1uM” value of the first is lower: 10.6% for the first, 17.2% for the second.

First: NS(=O)(=O)c1ccc(-n2cccc2C=O)cc1
Second: c1ccc2c(c1)Nc1ccccc1S2
The “hERG current change (%, negative = inhibition) at 1uM” value of the first is lower: 2.72% for the first, 14.1% for the second.

First: Brc1ccc2[nH]cc(/C=N/N3CCCCC3)c2c1
Second: CCOC(=O)N1CCN(c2ncnc3c2[nH]c2ccc(OC)cc23)CC1
The “hERG current change (%, negative = inhibition) at 1uM” value of the first is higher: -2.56% for the first, -8.87% for the second.

First: COc1ccc(Cl)c(Cn2c(NCCCN(C)C)nc3c2c(=O)n(C)c(=O)n3C)c1
Second: CC(C)OC(=O)/C(C#N)=C/c1cn(Cc2ccccc2)c2ccccc12
The “hERG current change (%, negative = inhibition) at 1uM” value of the first is lower: 0.065% for the first, 4.54% for the second.

With `c1ccc(CN2CCC3(CC2)Nc2ccccc2CO3)cc1` the “hERG current change (%, negative = inhibition) at 1uM” value was -4.96%.
